According to the supplement of paper PMC10126150:
Sequences with one replicate were seen in a single cluster, so their values are uncertain.

System: ATP
Assay: switch fluorescence ratio, 500 uM ATP over buffer (Cy3 cluster intensity, sum of 5 cycles each) (fold (ratio)); higher = stronger signal-on switching upon ATP binding; sequences stand for … in TCGTCGGCAGCGTCAGATGTGTATAAGAGACAGTTTTTTTTTTTTTTTTTTTTTTTTT…TC
Settings: aptamer strand: ATP DNA aptamer (quencher-CACCTGGGGGAGTATTGCGGAGGAAGG + anchor), 100 nM annealed; ATP concentration: 500 uM; one replicate
Outline: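 Five buffer/ATP imaging cycles were run on Cy3-labelled switching-strand clusters on a modified Illumina MiSeq flow-cell, with NaOH stripping and re-annealing between cycles. In each cycle, clusters annealed to 100 nM quencher-labelled ATP aptamer were imaged in selection buffer, then after 15 min with 500 uM ATP at 22 °C. Per cluster, the fluorescence ratio is summed target-cycle over summed buffer-cycle Cy3 intensity, averaged per switch-domain sequence. Only clusters within 100-1000 RFU were kept.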
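Note: ATP exposure 15 min at 22 °C before imaging.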

Sequence | switch fluorescence ratio
GGCGGGGTAT | 1.14
CACGTGACCA | 1.19
AGACATGTTA | 1.01
TTTTATTG | 1.02
TGCGATAATA | 1
AGGTATAGAA | 1.01
GGGCTTCCGG | 1.05
TGCGGGACAA | 0.991
GTTTATGTTG | 1.02
CCCAGCCGTG | 1.09
AGGCGCAACT | 1.1
ATTCATAGCT | 1
TGTTCAAG | 1.01
CGTGGTTACA | 1
AAGACAGAAA | 1.02
ATTAAAGGCT | 1.01
CTAGTGTGTC | 0.885
TTCCGGATCG | 1.05
AAGTGAGGAG | 1.01
AAGGGCGGT | 1.01
GTTGTGCTAA | 0.987
TGGAATCGCT | 0.944
ACAATCATTC | 1.01
AGTTGAATCG | 1.01
GTGTGGACAG | 1.07

Sequence | switch fluorescence ratio
CCAATTATCT | 1.01
AACAGATGTT | 0.969
TTAACCCGGC | 1.04
TGCTTCTTAG | 1
ATGGCATGGG | 0.986
AACTAGTGTG | 0.969
GGAGTTTGCA | 1.02
AAGGGGCATC | 0.979
GGAAGTGAG | 0.985
CCAAGTTAGT | 1.08
CCGCGCATCT | 3.94
TAAGCGTTGC | 1.03
ATAGCACGGT | 1.11
TCGCGGCTAA | 1.06
GCTCCTTTTC | 1.09
AAAAGTCGAA | 0.958
ATTTGCTCTT | 0.947
ACGATGGTGT | 1.05
ATGGCGCAGA | 0.971
TTCGCTTGTG | 1.01
CACGAGGCTG | 1.02
CTCAGAAGC | 1.09
AGTCGCTACA | 1.01
GGGGTCTGGA | 1.01
ATCGCCAATT | 1.05

Sequence | switch fluorescence ratio
ATTACACTGT | 1.03
TCAGCGAGTG | 1.01
GATTGCATTT | 0.985
TAGCTGTGTC | 0.999
CTTCAGCCAC | 2.15
TGTTAAGACC | 1.07
GGTCCAATGA | 1.05
ATGCTTTTTG | 0.974
ATAGATCCA | 1.01
GGTACTAGCC | 1.06
CGGTATCATG | 0.905
TTTGCTAATT | 1.07
TTGACGGATA | 0.985
AGATTAAAAA | 1.1
CAGCTATTTT | 0.999
TGAGTCATAT | 1.08
GGTCCTTTGG | 0.99
AGCACGGGCG | 1.11
ATAAACATGG | 1.02
GCCGTCGCTC | 1.04
GCGTAGCGGG | 0.958
CACAGAGTAC | 1.03
AAGCTAAGCG | 0.996
GAATGTTGGA | 0.938
ATAAAGGGT | 0.974

Sequence | switch fluorescence ratio
TTTATCTCTT | 0.951
ACTACTTGTC | 1.03
CATGGGCGAG | 1.16
GTAACAAGGC | 1.27
TCGCCTCGGA | 1.01
GGTAATAATG | 1.01
ACAATTACCC | 1.17
GGCTTTCGGG | 1.03
TAGTGATATC | 1
GTAAATATTG | 1.07
GATGCTTCCG | 1.02
CATTTGGTAG | 1.01
GGCCTGATGA | 0.995
GTGGCGCCGT | 1.03
CTTTGCCGCA | 1.38
GGAGCAGGTA | 1.05
GATTTAAGAC | 1
GAAACTTAAG | 0.992
GAAGTACAG | 1.21
GCCTAGGGTG | 1.56
TAGTCGGTCT | 0.989
GCTGGTACGC | 0.975
GGGAAGCTGT | 0.992
GATTGTGGCG | 0.921
CCTGAGCAGG | 1.17

Sequence | switch fluorescence ratio
TCAGGCTTC | 1.04
GTCTTATG | 1.06
TATGTAGTCA | 1.04
AAAGTCTTAT | 1
AATCTTTGGG | 1.02
AGGTGGGCTA | 1.01
TCGTTGGATA | 1.29
TATCTATAGA | 1.01
TACACTTGCT | 1
ACACCTTTTC | 2.54
AATCACCGAA | 1
CTCGTACGAC | 1.11
AATCATATTC | 1.04
AGTAACAACC | 1.03
GAGTACTAGC | 1
GAAAGTGGCG | 0.969
CAAATCCAAG | 0.99
GTCGTACTAA | 1.03
TTCTATGACA | 1.02
CTTGTGGCAG | 1.06
TCGTTTACCT | 1.09
GCTGTGTACT | 1.04
GGGATTGCAG | 0.949
ACTCGCGGTC | 2.2
ACGAGATTTC | 1.02

Sequence | switch fluorescence ratio
GACTGTGATT | 0.997
TTGGCATCGC | 0.989
GTCGGGTACG | 1
CGCGTGAAAG | 1.01
GGATTTGCGT | 1
TAGATAGTAG | 0.972
AGTGACCCAA | 1.01
CCGGGTGAGG | 1.06
AATCGTCGCT | 0.973
TTCGGCGAAA | 1.06
TTAAAAATTC | 0.941
AACCCGATTG | 1.04
ATAGTCTGGG | 0.985
GTTCAACAGT | 0.968
ATAAGCACAG | 1.12
CAATGTAGCA | 1.04
TCCGTGTCCT | 1.09
TTCGGTTTCT | 0.993
ACATGGCTG | 1.06
TATGGAAGCG | 0.999
ATTATGAGAG | 0.961
AGGCGCTTAA | 0.994
GTCCGGAGCT | 3.5
ATGTTGTGGC | 1.2
TGCCAGCTCT | 1.06

Sequence | switch fluorescence ratio
CTCTCCAGGA | 1.16
GAACTTGACA | 1.06
GGGCTGGAAC | 1.01
AATTGGGAAC | 0.979
TACCCAGCAA | 2.98
AGTTGCGGTA | 0.96
TTTTTAGCAC | 1.37
AGTTACGAAT | 0.977
CGCCTTAATG | 0.973
GGATATGTCG | 1
TATAAGGGTA | 1.01
GACGTGTACA | 1.07
GTAACAAGTC | 1.02
CCTCAGGGTA | 1.49
AGCAGGTGAC | 1.59
TCTCAAGCCA | 1.2
AAATTGTTCG | 0.986
GAGTACCGCA | 1.38
TCACAAAGGC | 1.14
GCATCGCTCG | 0.998
CCTCAGTACG | 1.59
CCAATAGGGA | 1
CGGGCCTTA | 1.01
GCGGAGTATG | 0.992
GCATTAGTTG | 0.937

Sequence | switch fluorescence ratio
AAGCCGTGGT | 1.01
GGTAAGTCAG | 0.987
TGTGGCGCAG | 1.01
CGATCAGAGG | 1.02
CCCGGTCATG | 0.999
GCGGTGTGTT | 0.968
AGGTACCAGC | 1.01
GAGTGCTAGA | 1.05
GCTTAAAGCG | 0.985
CGGAAGGGAA | 1.1
AGTAATTAC | 1.01
GAGTGGGAAC | 1.03
ATCGTGGAG | 1.02
ACGCCTCCGT | 1.92
GATCGCAGGT | 1.08
AATGAGGAGT | 0.996
CGCCTGTAGA | 1.05
TTAGTCAGAC | 1.15
TTAAGAGCGT | 0.967
TTACTAAAGT | 0.981
TCATTACACG | 1.01
CTCGATACCC | 1.22
GGTAGTCATA | 1.03
CACCATGCGG | 0.933
CTACATGCGC | 1.02
